# Data reported in PubChem BioAssay AID1347430 (National Center for Advancing Translational Sciences (NCATS), 2020).
# Screen size: about 91,000 compounds; about 130 (0.14%) were called active. Inconclusive means that the source gave no clear call. Such entries were picked first, then a sample of the others. The call rests on the fitted dose curve; in most records, active means well fitted inhibition curve with a large enough effect; inconclusive means small, poorly fitted or top-dose-only effect; inactive means flat fitted curve, though single readings scatter. Potencies beside an inconclusive call are fits to weak or partial responses and may not hold up.
# System: Uracil-DNA glycosylase
# Assay: Primary qHTS assay for inhibitors of Activation Induced Cytidine Deaminase (AID): UDG Counterscreen signal; further: nearly all actives have a fitted effect of over 65% in size
# Settings: FRET deamination/UDG coupled assay, UDG read, 4 h; series mostly up to 115 µM
# Source text: Assay Provider (PI) Patricia Gearhart Ph.D.
# National Institute on Aging
# National Institute of Health (NIH), Bethesda, MD
# Assay Provider (PI) Rahul Kohli Ph.D.
# Perelman School of Medicine
# University of Pennsylvania, Philadelphia, PA
# Activation-Induced Deaminase (AID) is a cytosine deaminase which converts cytosine into uracil within stretches of ssDNA. The presence of uracil in DNA initiates a cascade of mutagenic DNA repair to introduce point mutations and DNA double strand breaks. Specific targeting of AID to the immunoglobulin heavy chain loci (Igh) promotes mutagenesis in the antibody variable region for somatic hypermutation (SHM) or switch regions leading to class switch recombination (CSR). However, AID also plays a role in accumulating unnecessary mutations across the genome. Mis-targeting of AID results in the initiation of tumor development and leads to greater drug resistance among cancer cells when continually expressed. To identify an AID inhibitor, a small molecule library will be screened in collaboration with NCATS core facility at NIH. To confirm biological function, inhibitors will be examined in an in vitro murine B-cell activation assay and subsequent secondary validation screens. Top molecules will be further screened to identify inhibitory efficacy against a wild type primary splenocytes assay. Using these approaches, we hope to identify a small molecule with great efficacy and low toxicity for use as a molecular probe to further characterize AID's intricacies, or even as a therapeutic.
# A FRET based analysis of cytosine deamination, was developed to identify potential inhibitors of AID catalytic activity. This screen has two signal output, Read 1 evaluates the AID inhibition response. The second readout (Read 2) evaluates UDG response and is uses as a counterscreen to exclude false positive inhibitors. Inhibition in AID and inactivity in the UDG signal is the desired outcome for this assay.
# SEQUENCE No. (e.g., 1, 2, 3, etc.); […] (e.g., Cells, Incubation, Reagent, etc.); VALUE; DESCRIPTION
# 1a; Reagent; 3 uL; [4/3x] 1 uM AID/2.67 U/mL UDG
# 1b; Reagent; 3 uL; 2 U/mL UDG
# 1c; Reagent; 3 uL; 1 uM AID
# 2a; Compound; 46 nL; Follow-up plates (0.64 uM - 10 mM)
# 2b; Control; 46 nL; ATA ([…] - 10 mM)
# 3; Time; 10 min; incubation at room temperature
# 5; Time; 4 hr; incubation at room temperature
# 6; Reagent; 4 uL; [2x] 250 mM NaOH
# 7; Time; 15 sec; centrifuge at 1000 rpm
# 8; Time; 30 min; incubation at room temperature
# 9a; Detection; fluorescence (Read 1: AID); EnVision (PerkinElmer) plate reader, 540 excitation and 590 emission filters
# 9b; Detection; fluorescence (Read 2: UDG); EnVision (PerkinElmer) plate reader, 560 excitation and 665 emission filters
# NOTES (numbers refer to sequence above)
# 1a; Reagents were dispensed in a medium-binding black solid-bottom Greiner plates (789176F) using a BioRptr liquid dispenser. Dispense 3 uL of [4/3x] 1 uM AID (provided by Kohli lab) and [4/3x] 2 U/mL UDG (NEB M0280L) into columns 1, 2, 5 to 48.
# 1b; Dispense 3 uL of [4/3x] 2 U/mL UDG into column 3.
# 1c; Dispense 3 uL of [4/3x] 1 uM AID into column 4.
# 2a; Compound (7-points [uM] (0.64; 3.2; 16; 80; 400; 2,000; 10,000; 20,000) double pin-transferred (Dip Factor = 2) using the Kalypsys (Wako USA) pintool equipped with a 1536 pinhead for a final concentration range of 7.32 nM - 114 uM.
# 2b; 10 mM Aurintricarboxylic Acid (Sigma A1895) (ATA, 8-point, n = 2, 1:2.5 dilution in column 2) double pin-transferred (Dip Factor = 2) using the Kalypsys (Wako USA) pintool equipped with a 1536 pinhead for a [final] range of 186 nM - 114 uM.
# 3; Room temperature incubation.
# 4; Dispense 1 uL of substrate mixture from the Kohli lab [4x] […] DJC20 and [4x] 250 nM DJC23 into columns 1 to 48 .
# 5; Room temperature incubation.
# 6; Dispense 4 uL of substrate mixture [2x] 250 mM NaOH into columns 1 to 48.
# 7; Centrifugation step to remove bubbles.
# 8; Room temperature incubation
# 9a; Fluorescence signal (column label AID) was read using the EnVision plate reader. […]
# Potency means the concentration at half of the fitted maximal effect; tags describe the fitted curve by direction and shape.
row,SMILES,Potency
1,CCC(=O)Nc1nnc(S(=O)(=O)N(C)Cc2ccc(Cl)cc2)s1,"inconclusive: 89.1 µM [inhibitor, single point]"
2,CCC(CC)C(=O)Nc1c(C(=O)N2CCN(c3ccccc3F)CC2)oc2ccccc12,"inconclusive: 89.1 µM [inhibitor, single point]"
3,CC(C)(Oc1ccc(Cl)cc1)c1nn2c(COc3ccc(F)cc3)nnc2s1,"inconclusive: 89.1 µM [inhibitor, single point]"
4,COc1ccc(NC(=O)c2sc3nc(C)c(C(=O)Nc4ccc(C)cc4C)c(-c4ccc(Cl)cc4)c3c2N)cc1,"inconclusive: 89.1 µM [inhibitor, partial curve, poor fit]"
5,Cc1ccc(NC(=O)c2cccc(NC(=O)N3CCSc4ncccc43)c2)cc1Cl,"inconclusive: 89.1 µM [inhibitor, single point]"
6,Cc1ccc(C(=O)NCC(c2cccs2)S(=O)(=O)c2cccs2)cc1C (stereo not drawn),"inconclusive: 79.4 µM [inhibitor, partial curve, poor fit]"
7,Cc1ccc(C(=O)C(C)OC(=O)c2ccc(S(=O)(=O)N(C)C)cc2)cc1 (stereo not drawn),inactive
8,COc1ccccc1CNC(=O)c1cccn1-c1nnc(N2CCCC2)s1,"inconclusive: 89.1 µM [inhibitor, single point]"
9,O=C(Nc1cccc(-c2nc3ncccc3o2)c1)c1ccc(-c2cccc(Cl)c2Cl)o1,"inconclusive: 100 µM [inhibitor, partial curve, poor fit]"
10,CC(=O)c1cc(-c2ccccc2)n(CC(=O)NC2CCCCCC2)c1C,"inconclusive: 89.1 µM [inhibitor, single point]"
11,CCCc1cc(=O)[nH]c(SCc2noc(-c3ccc(F)cc3)n2)n1,inactive
12,COc1ccc(CCNC(=O)Cc2c(C)c3cc(OC)c(OC)cc3oc2=O)cc1,"inconclusive: 100 µM [inhibitor, single point]"
13,COc1ccc2nc(C)cc(SCC(NC(C)=O)C(=O)O)c2c1 (stereo not drawn),inactive
14,COc1ccc(OC)c(NC(=O)Cn2c(=O)oc3cc(S(=O)(=O)NCc4ccccc4)ccc32)c1,"inconclusive: 89.1 µM [inhibitor, single point]"
15,Cc1cccc(N2CCN(c3nc4ccccc4c4nc(-c5ccccc5)nn34)CC2)c1C,"inconclusive: 100 µM [inhibitor, single point]"
16,Cc1ccc(Cn2c(CCCNC(=O)C3CCCCC3)nc3ccccc32)cc1,"inconclusive: 89.1 µM [inhibitor, single point]"
17,O=C(O)c1cc2ccc(Br)cc2[nH]1,inactive

row,SMILES,Potency
1,Oc1ccc(NCc2ccc(OCc3ccccc3Cl)cc2)cc1,active: 79.4 µM
2,O=C(CSc1nc(=O)n(Cc2cccnc2)c2c1CCC2)Nc1ccc(F)cc1F,"inconclusive: 100 µM [inhibitor, single point]"
3,COc1ccc(OC)c(S(=O)(=O)N2CC=C(c3c(C)n(CC(=O)N4CCCC4)c4ccccc34)CC2)c1,"inconclusive: 79.4 µM [inhibitor, partial curve, poor fit]"
4,CCOC(=O)C1=C(CN(CC)Cc2ccccc2)NC(=O)NC1c1ccc(OC(C)C)cc1 (stereo not drawn),"inconclusive: 31.6 µM [inhibitor, partial curve, poor fit]"
5,CCCCSCCCNC(=O)C1CCN(Cc2nc(-c3cccc(Br)c3)oc2C)CC1,"inconclusive: 70.8 µM [inhibitor, partial curve, poor fit]"
6,O=S(=O)(NCCO)c1ccc(Cl)c2ccccc12,inactive
7,Cc1ccc(Cl)cc1-n1ncc2c(N3CCC(C)CC3)ncnc21,"inconclusive: 89.1 µM [inhibitor, partial curve, poor fit]"
8,OB1Oc2ccccc2-c2ccccc21,inactive
9,COc1ccccc1CNC(=O)C(CC(C)C)N1Cc2ccccc2C1=O (stereo not drawn),"inconclusive: 89.1 µM [inhibitor, single point]"
10,CC(=O)Oc1ccc2ccc3ccc(OC(C)=O)c4ccc1c2c34,"inconclusive: 20 µM [inhibitor, full curve]"
11,COc1ccc(/C(C)=N/O)c(F)c1,inactive
12,CN(C)c1ccc(C=Nc2ccc(O)cc2)cc1,"inconclusive: 44.7 µM [inhibitor, partial curve, poor fit]"
13,CCOC(=O)c1cc(-c2ccc(F)cc2)n(CCC(=O)NC2CCCCC2)c1C,inactive
14,CCOc1cc(C(=O)Nc2ccc(OC)cc2)nc2ccc(Cl)cc12,inactive
15,COC(=O)c1[nH]c2ccc(F)cc2c1NC(=O)CCN1CCCC(C)(C)C1,"inconclusive: 89.1 µM [inhibitor, single point]"
16,Cc1ccc(C(=O)Nc2nc(-c3ccccc3)ns2)cc1,"inconclusive: 44.7 µM [inhibitor, single point]"
